# Results: the supplement of paper PMC8728848
# The list shows a part of the results.
# B1: AMA (Arum maculatun) (protein)
# chain: MAKLLLLLLLPAIVGLAVPRSAAAVGSNYMLSGETLNTDGRLTNGELTLIMQVDCNLVLYHGGWQSNTANNGRDCKLTLTDFGELVIKSGTGSTVWSSGSKQSMKGNYAAVVHPEGRLVIYGPSVFKINPSGAGLNGLPLRNIPLTNNMLFSGQVLYGDGTLSARNHKLVMQGDCNMVLYGGKYGWQSNTHGNGKYCFAMLTHKGELVIRDDDFKSVWSSKSSSKQGDYVFILQDDSLAIIYGPAVFSTGSKKMISMVTN
# Legend:
# Assay in all cases: glycan array binding signal (z-score within array); higher = stronger binding
# Conditions in all cases: glycan notation: IUPAC condensed, linker removed
# [1] = biological target: Neu5Ac(a2-3)Gal(b1-3)GlcNAc(b1-3)Gal(b1-4)GlcNAc
# Procedure, shortened: (§1)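 Glycan array data came from 3228 arrays in the Consortium for Functional Glycomics database, and only arrays with an available protein sequence were kept. Glycan names were put into IUPAC-condensed notation, and columns mapping to the same glycan were averaged. The binding signal is a within-array Z-score, averaged across arrays of one protein sequence run at different concentrations or buffers and across linkers. A negative Z-score can be read as non-binding.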
# [2] = biological target: Neu5Ac(a2-3)Gal(b1-3)GlcNAc(b1-3)GalNAc
# Procedure, shortened: as §1
# [3] = biological target: Neu5Ac(a2-3)Gal(b1-3)GlcNAc(b1-4)Gal(b1-4)Glc
# Procedure, shortened: as §1
# [4] = biological target: Neu5Ac(a2-3)Gal(b1-3)GlcNAc(b1-6)GalNAc
# Procedure, shortened: as §1
# [5] = biological target: Neu5Ac(a2-3)Gal(b1-3)GlcNAc6S
# Procedure, shortened: as §1
# [6] = biological target: Neu5Ac(a2-3)Gal(b1-3)[Fuc(a1-4)]GlcNAc
# Procedure, shortened: as §1
# [7] = biological target: Neu5Ac(a2-3)Gal(b1-3)[Fuc(a1-4)]GlcNAc(b1-3)Gal(b1-3)[Fuc(a1-4)]GlcNAc
# Procedure, shortened: as §1
# [8] = biological target: Neu5Ac(a2-3)Gal(b1-3)[Fuc(a1-4)]GlcNAc(b1-3)Gal(b1-4)[Fuc(a1-3)]GlcNAc
# Procedure, shortened: as §1
# [9] = biological target: Neu5Ac(a2-3)Gal(b1-3)[GlcNAc(b1-6)]GalNAc
# Procedure, shortened: as §1
# [10] = biological target: Neu5Ac(a2-3)Gal(b1-3)[Neu5Ac(a2-3)Gal(b1-4)]GlcNAc
# Procedure, shortened: as §1
# [11] = biological target: Neu5Ac(a2-3)Gal(b1-3)[Neu5Ac(a2-6)]GalNAc
# Procedure, shortened: as §1
# [12] = biological target: Neu5Ac(a2-3)Gal(b1-3)[Neu5Ac(a2-6)]GlcNAc(b1-3)[Fuc(a1-3)[Gal(b1-4)]GlcNAc(b1-6)]Gal(b1-4)Glc
# Procedure, shortened: as §1
# [13] = biological target: Neu5Ac(a2-3)Gal(b1-3)]Neu5Ac(a2-3)Gal(b1-4)]GlcNAc
# Procedure, shortened: as §1
# Neu5Ac(a2-3)Gal(b1-4)Glc = biological target: Neu5Ac(a2-3)Gal(b1-4)Glc
# Procedure, shortened: as §1
# [14] = biological target: Neu5Ac(a2-3)Gal(b1-4)GlcNAc
# Procedure, shortened: as §1
# [15] = biological target: Neu5Ac(a2-3)Gal(b1-4)GlcNAc(b1-2)Man
# Procedure, shortened: as §1
# [16] = biological target: Neu5Ac(a2-3)Gal(b1-4)GlcNAc(b1-2)Man(a1-3)[GlcNAc(b1-4)][Neu5Ac(a2-3)Gal(b1-4)GlcNAc(b1-2)Man(a1-6)]Man(b1-4)GlcNAc(b1-4)GlcNAc
# Procedure, shortened: as §1
# [17] = biological target: Neu5Ac(a2-3)Gal(b1-4)GlcNAc(b1-2)Man(a1-3)[Neu5Ac(a2-3)Gal(b1-4)GlcNAc(b1-2)Man(a1-6)]Man(b1-4)GlcNAc(b1-4)GlcNAc
# Procedure, shortened: as §1
# [18] = biological target: Neu5Ac(a2-3)Gal(b1-4)GlcNAc(b1-2)Man(a1-3)[Neu5Ac(a2-3)Gal(b1-4)GlcNAc(b1-2)Man(a1-6)]Man(b1-4)GlcNAc(b1-4)[Fuc(a1-6)]GlcNAc
# Procedure, shortened: as §1
# [19] = biological target: Neu5Ac(a2-3)Gal(b1-4)GlcNAc(b1-2)Man(a1-3)[Neu5Ac(a2-6)Gal(b1-4)GlcNAc(b1-2)Man(a1-6)]Man(b1-4)GlcNAc(b1-4)GlcNAc
# Procedure, shortened: as §1
# [20] = biological target: Neu5Ac(a2-3)Gal(b1-4)GlcNAc(b1-2)[Neu5Ac(a2-3)Gal(b1-4)GlcNAc(b1-4)]Man(a1-3)[GlcNAc(b1-4)][Neu5Ac(a2-3)Gal(b1-4)GlcNAc(b1-2)[Neu5Ac(a2-3)Gal(b1-4)GlcNAc(b1-6)]Man(a1-6)]Man(b1-4)GlcNAc(b1-4)GlcNAc
# Procedure, shortened: as §1
# [21] = biological target: Neu5Ac(a2-3)Gal(b1-4)GlcNAc(b1-2)[Neu5Ac(a2-3)Gal(b1-4)GlcNAc(b1-4)]Man(a1-3)[GlcNAc(b1-4)][Neu5Ac(a2-3)Gal(b1-4)GlcNAc(b1-4)Man(a1-6)]Man(b1-4)GlcNAc(b1-4)GlcNAc
# Procedure, shortened: as §1
# [22] = biological target: Neu5Ac(a2-3)Gal(b1-4)GlcNAc(b1-2)[Neu5Ac(a2-3)Gal(b1-4)GlcNAc(b1-6)]Man(a1-6)[Neu5Ac(a2-3)Gal(b1-4)GlcNAc(b1-2)Man(a1-3)]Man(b1-4)GlcNAc(b1-4)GlcNAc
# Procedure, shortened: as §1
# [23] = biological target: Neu5Ac(a2-3)Gal(b1-4)GlcNAc(b1-2)[Neu5Ac(a2-3)Gal(b1-4)GlcNAc(b1-6)]Man(a1-6)[Neu5Ac(a2-3)Gal(b1-4)GlcNAc(b1-2)Man(a1-3)][GlcNAc(b1-4)]Man(b1-4)GlcNAc(b1-4)GlcNAc
# Procedure, shortened: as §1
# [24] = biological target: Neu5Ac(a2-3)Gal(b1-4)GlcNAc(b1-3)Gal
# Procedure, shortened: as §1
# [25] = biological target: Neu5Ac(a2-3)Gal(b1-4)GlcNAc(b1-3)Gal(b1-3)GlcNAc
# Procedure, shortened: as §1
# [26] = biological target: Neu5Ac(a2-3)Gal(b1-4)GlcNAc(b1-3)Gal(b1-4)GlcNAc
# Procedure, shortened: as §1
# [27] = biological target: Neu5Ac(a2-3)Gal(b1-4)GlcNAc(b1-3)Gal(b1-4)GlcNAc(b1-2)Man(a1-3)[Neu5Ac(a2-3)Gal(b1-4)GlcNAc(b1-3)Gal(b1-4)GlcNAc(b1-2)Man(a1-6)]Man(b1-4)GlcNAc(b1-4)GlcNAc
# Procedure, shortened: as §1
# [28] = biological target: Neu5Ac(a2-3)Gal(b1-4)GlcNAc(b1-3)Gal(b1-4)GlcNAc(b1-3)Gal(b1-4)GlcNAc
# Procedure, shortened: as §1
# [29] = biological target: Neu5Ac(a2-3)Gal(b1-4)GlcNAc(b1-3)Gal(b1-4)GlcNAc(b1-3)Gal(b1-4)GlcNAc(b1-2)Man(a1-3)[Neu5Ac(a2-3)Gal(b1-4)GlcNAc(b1-3)Gal(b1-4)GlcNAc(b1-3)Gal(b1-4)GlcNAc(b1-2)Man(a1-6)]GalNAc
# Procedure, shortened: as §1
# [30] = biological target: Neu5Ac(a2-3)Gal(b1-4)GlcNAc(b1-3)Gal(b1-4)GlcNAc(b1-3)GalNAc
# Procedure, shortened: as §1
# [31] = biological target: Neu5Ac(a2-3)Gal(b1-4)GlcNAc(b1-3)Gal(b1-4)GlcNAc(b1-3)[Neu5Ac(a2-3)Gal(b1-4)GlcNAc(b1-3)Gal(b1-4)GlcNAc(b1-6)]GalNAc
# Procedure, shortened: as §1
# [32] = biological target: Neu5Ac(a2-3)Gal(b1-4)GlcNAc(b1-3)Gal(b1-4)GlcNAc(b1-6)[Gal(b1-3)]GalNAc
# Procedure, shortened: as §1
# [33] = biological target: Neu5Ac(a2-3)Gal(b1-4)GlcNAc(b1-3)Gal(b1-4)[Fuc(a1-3)]GlcNAc
# Procedure, shortened: as §1
# [34] = biological target: Neu5Ac(a2-3)Gal(b1-4)GlcNAc(b1-3)GalNAc
# Procedure, shortened: as §1
# [35] = biological target: Neu5Ac(a2-3)Gal(b1-4)GlcNAc(b1-3)[Neu5Ac(a2-3)Gal(b1-4)GlcNAc(b1-6)]GalNAc
# Procedure, shortened: as §1
# [36] = biological target: Neu5Ac(a2-3)Gal(b1-4)GlcNAc(b1-6)GalNAc
# Procedure, shortened: as §1
# [37] = biological target: Neu5Ac(a2-3)Gal(b1-4)GlcNAc(b1-6)[Gal(b1-3)]GalNAc
# Procedure, shortened: as §1
binder,measurement,setting,value
B1,glycan array binding signal (z-score),[1],-0.217
same,glycan array binding signal (z-score),[2],-0.212
same,glycan array binding signal (z-score),[3],-0.204
same,glycan array binding signal (z-score),[4],-0.213
same,glycan array binding signal (z-score),[5],-0.2
same,glycan array binding signal (z-score),[6],-0.218
same,glycan array binding signal (z-score),[7],-0.207
same,glycan array binding signal (z-score),[8],-0.226
same,glycan array binding signal (z-score),[9],-0.219
same,glycan array binding signal (z-score),[10],0.441
same,glycan array binding signal (z-score),[11],-0.211
same,glycan array binding signal (z-score),[12],-0.218
same,glycan array binding signal (z-score),[13],-0.217
same,glycan array binding signal (z-score),Neu5Ac(a2-3)Gal(b1-4)Glc,-0.196
same,glycan array binding signal (z-score),[14],-0.215
same,glycan array binding signal (z-score),[15],-0.201
same,glycan array binding signal (z-score),[16],-0.219
same,glycan array binding signal (z-score),[17],-0.169
same,glycan array binding signal (z-score),[18],0.584
same,glycan array binding signal (z-score),[19],-0.203
same,glycan array binding signal (z-score),[20],-0.218
same,glycan array binding signal (z-score),[21],-0.22
same,glycan array binding signal (z-score),[22],-0.212
same,glycan array binding signal (z-score),[23],-0.222
same,glycan array binding signal (z-score),[24],-0.22
same,glycan array binding signal (z-score),[25],-0.21
same,glycan array binding signal (z-score),[26],-0.217
same,glycan array binding signal (z-score),[27],-0.113
same,glycan array binding signal (z-score),[28],-0.215
same,glycan array binding signal (z-score),[29],0.009
same,glycan array binding signal (z-score),[30],-0.221
same,glycan array binding signal (z-score),[31],-0.188
same,glycan array binding signal (z-score),[32],-0.182
same,glycan array binding signal (z-score),[33],-0.224
same,glycan array binding signal (z-score),[34],-0.204
same,glycan array binding signal (z-score),[35],-0.217
same,glycan array binding signal (z-score),[36],-0.221
same,glycan array binding signal (z-score),[37],-0.21
